Measurements taken from PubChem BioAssay AID1508623 (National Center for Advancing Translational Sciences (NCATS), 2021).
The campaign covered roughly 48,000 compounds. About 450 (0.94%) were called active. Inconclusive results (about 19%) are left out. Calls come from the whole dose curve; as a rule, active = well fitted inhibition curve with a large enough effect; inconclusive = small, poorly fitted or top-dose-only effect; inactive = no such curve, though single readings can be large or run the other way. The list shows a part of the results.

assay: Primary qHTS for Identification of Small Molecule Inhibitors of Huntingtin Promoter Activity; conditions: HEK293 HTT promoter firefly luciferase reporter (activity 0% = vehicle and -100% = no light), 24 h; series mostly up to 57.5 µM; activity change, negative = inhibition: at the top concentration; note: nearly all actives have a fitted effect of over 50% in size
Summary of the method: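 Quantitative HTS used concentration series of up to 57.5 uM final on HEK293 luciferase reporter cells, 24 h at 37 degrees C. Readout was Dual-Glo firefly luminescence.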

Activity change, negative = inhibition, inactive:
O=C(CS(=O)(=O)c1cccc2nsnc12)NCc1ccccc1Cl -1.49%
Cc1ccc(CN2c3ccccc3-c3nc(SCC(=O)NCc4ccccc4)ncc3S2(=O)=O)cc1 -24.3%
CCC(=O)C1=C(c2ccccc2)N(C(=O)CC)n2c(nnc2-c2ccccc2)S1 -12.5%
Cc1ccc(S(=O)(=O)NCCc2nnc3ccc(SCc4ccccc4F)nn23)cc1 -13.7%
CCCCCCc1cc2cc(-c3nnc(-c4cccc(Cl)c4)o3)c(=O)oc2cc1O -6.08%
Cc1ccc(NC(=O)c2oc3ccc(S(=O)(=O)N4CCCCC4)cc3c2C)c(C)c1 -16.2%
Cc1cccc(N2CCN(C(=O)C(C)n3nc(C)n4c(cc5occc54)c3=O)CC2)c1C (stereo not drawn) -19.9%
Cc1cc(C)c(NC(=O)c2c(C)oc3c2C2=NCCN2C=N3)c(C)c1 -6.15%
CCc1ccc(CNC(=O)Cn2nc(-c3ccc(Cl)cc3)ccc2=O)cc1 -29.4%
CCOC(=O)C1=C(O)C(=O)N(Cc2ccccc2)C1 -8.23%
CN(C)c1ccc(CNC(=O)C2CCN(S(=O)(=O)c3ccc4c(c3)oc(=O)n4C)CC2)cc1 -8.39%
COc1cccc(NC(=O)Cn2c(=O)n(Cc3ccc(C(=O)NCc4ccc5c(c4)OCO5)cc3)c(=O)c3ccccc32)c1 -1.12%
CCC(Oc1ccc(F)cc1)C(=O)Nc1nc2c(s1)CCCC2 (stereo not drawn) -20.9%
Cc1cnc(C(=O)O)c[n+]1[O-] 3.46%
COc1ccc(C(=O)N2c3nc(-c4ccco4)nn3C3(CCCCC3)[C@@H]3CCCC[C@@H]32)cc1OC -22.7%
CC(=O)Nc1cccc(O)c1 1.44%
O=C(NC1CCCCC1)c1ccc(Cn2c(SCc3ccccc3)nc3cccnc32)cc1 -1.86%
O=C(Nc1ccc(F)cc1)c1oc2ccccc2c1NC(=O)C1CCCCC1 -22%
Cc1cccc(C(=O)N2CCCCC2CCN2CCCCC2)c1 (stereo not drawn) -11.3%
O=C(O)C1(C(=O)O)CCC1.[NH2-].[NH2-].[Pt+2] -0.0181%
COCCCn1c(=O)c2sccc2n2c(CCCC(=O)Nc3ccc(F)c(F)c3)nnc12 -19%
COc1ccc(CNC(=O)CCC2N=C3c4ccccc4N=C(SCc4ccc(F)cc4)N3C2=O)cc1 (stereo not drawn) -21%
O=C(C1CCCCC1)N(Cc1cccnc1)c1nc2c(F)cc(F)cc2s1 -29.2%
CCN1CCOC(=O)C1CC(=O)Nc1ccc(C)c(Cl)c1 (stereo not drawn) -3.85%
Nc1c(C(=O)Nc2cccc(F)c2)sc2nc(-c3cccs3)ccc12 14.4%
Cc1cc(C)nc(NS(=O)(=O)c2ccc(NC(=O)c3cc(=O)c4ccc(C)c(C)c4o3)cc2)n1 15.9%
CN1CCN(C2(CNC(=O)c3ccc([N+](=O)[O-])cc3)CCCCC2)CC1 -11.7%
Cc1ccccc1-c1nc2scc(CCNC(=O)C(=O)Nc3ccc(F)cc3F)n2n1 1.94%
